According to PubChem BioAssay AID624417 (National Center for Advancing Translational Sciences (NCATS), 2012):
Screen size: about 410,000 compounds; about 6,400 (1.6%) were called active. Inconclusive results, whose numbers are uncertain, are shown with a selection of clear calls. Calls follow the shape of the dose curve; as a rule, active = well fitted inhibition curve with a large enough effect; inconclusive = small, poorly fitted or top-dose-only effect; inactive = no such curve, though single readings can be large or run the other way. Potencies beside an inconclusive call are fits to weak or partial responses and may not hold up.

target: Glucagon-like peptide 1 receptor (Homo sapiens) (UniProt P43220); assay: qHTS of GLP-1 Receptor Inverse Agonists (Inhibition Mode); conditions: HEK293 GLP-1R CRE-luciferase, luminescence, 24 h, GLP-1R form is constitutively active; activity change, negative = inhibition: at 38.3 µM (top of the series) unless noted; also: nearly all actives have a fitted effect of over 55% in size
Sequence of UniProt P43220 (P43220 whole entry, looked up): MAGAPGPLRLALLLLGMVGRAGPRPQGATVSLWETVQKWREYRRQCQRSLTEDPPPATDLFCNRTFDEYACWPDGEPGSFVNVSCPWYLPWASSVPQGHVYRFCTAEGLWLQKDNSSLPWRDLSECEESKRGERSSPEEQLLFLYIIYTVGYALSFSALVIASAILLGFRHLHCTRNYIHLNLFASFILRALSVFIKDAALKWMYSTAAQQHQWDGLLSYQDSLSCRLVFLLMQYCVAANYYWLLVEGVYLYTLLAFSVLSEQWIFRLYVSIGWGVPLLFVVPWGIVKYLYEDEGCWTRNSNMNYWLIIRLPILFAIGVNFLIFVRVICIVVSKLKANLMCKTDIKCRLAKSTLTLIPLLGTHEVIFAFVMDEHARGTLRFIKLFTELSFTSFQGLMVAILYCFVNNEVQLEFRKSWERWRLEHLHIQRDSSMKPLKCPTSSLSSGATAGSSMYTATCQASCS
Summary of the method: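 Cells are plated, allowed 12 hours at 37 deg C, then treated with compounds for 24 hr before luciferase detection reagent is added and luminescence is read after 12 min at room temperature. The HEK293 line carries constitutively active GLP-1R with a cAMP-responsive reporter.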
% is scaled to controls: 0 for no effect and ±100 for the full control effect; potency is read from the fitted curve at half-maximal effect; tags tell the direction and shape of the fitted curve.

Potency, inconclusive:
CCO[C@H]1OC(C(=O)N2CCN(Cc3ccc4c(c3)OCO4)CC2)=C[C@@H](C(C)(C)C)[C@@H]1CCCO 28.2 µM [inhibitor, single point]
CC1CCCC(n2c(=S)[nH]c3ccccc3c2=O)C1C (stereo unspecified) 7.94 µM [inhibitor, partial curve, poor fit]
O=C(Nc1nnc(-c2cccs2)o1)c1cccc(Oc2ccccc2)c1 28.2 µM [inhibitor, single point]
Cc1ccc(Cl)cc1N1CCN(C(=O)C2CCN(S(C)(=O)=O)CC2)CC1 28.2 µM [inhibitor, single point]
O=C(Cn1cc(C(F)(F)F)ccc1=O)N/N=C/c1ccccc1O 28.2 µM [inhibitor, single point]
COCCN(C(=S)Nc1ccc(C(C)C)cc1)C(C)c1cccs1 (stereo unspecified) 11.2 µM [inhibitor, partial curve, poor fit]
O=C(Cn1c(=O)[nH]c2ccccc2c1=O)N1CCN(Cc2ccc3c(c2)OCO3)CC1 0.891 µM [inhibitor, full curve, poor fit]
Cc1cccc(-n2ncc3c(N4CC(C)CC(C)C4)ncnc32)c1 (stereo unspecified) 1.12 µM [inhibitor, full curve, poor fit]
COc1ccc(-n2sc3ccc(F)cc3c2=O)cc1 10 µM [inhibitor, single point]
COc1cc(C(=O)N/N=C(\C)Cc2ccccc2)cc(OC)c1OC 1 µM [inhibitor, full curve, poor fit]
Cc1ccc(-c2csc3ncn(CC(=O)OC(C)C)c(=O)c23)cc1 5.01 µM [inhibitor, partial curve, poor fit]
COc1ccc(C(=O)COC(=O)Cc2c[nH]c3ccccc23)c(OC)c1 20 µM [inhibitor, single point]
Clc1ccc(C2CC(c3cccs3)n3ncnc3N2)cc1Cl (stereo unspecified) 31.6 µM [inhibitor, single point]
CC(=O)N(c1cc(C)ccc1C)c1ccccc1[N+](=O)[O-] 31.6 µM [inhibitor, single point]
O=C(N/N=C/c1c[nH]c2ccccc12)c1ccc(Br)cc1 12.6 µM [inhibitor, partial curve]
O=C(Nc1sc2c(c1C(=O)O)CCCC2)c1ccccc1Cl 28.2 µM [inhibitor, single point]
COCCCNCC1C(Oc2ccc(Cl)cc2)C(=O)N1c1ccccc1C (stereo unspecified) 12.6 µM [inhibitor, single point]
COC(=O)C1=CN(c2ccc3c(c2)OCO3)C(N)=C(C#N)C1c1cccc(F)c1 (stereo unspecified) 0.794 µM [inhibitor, full curve, poor fit]
O=C(NC1CCN(C(=O)N2c3ccccc3Sc3ccccc32)CC1)c1ccccc1F 7.08 µM [inhibitor, partial curve, poor fit]
CCN(CC)CCn1c2c(c(SCC(=O)Nc3ccc(C)c(F)c3)nc1=O)CCCC2 7.94 µM [inhibitor, partial curve]
O=C(CSc1nc(O)cc(=O)[nH]1)N1c2ccccc2Sc2ccccc21 28.2 µM [inhibitor, single point]
C[C@H](NC(=O)c1ccc(C(C)(C)C)cc1)C(=O)N1CCN(C/C=C/c2ccccc2)CC1 8.91 µM [inhibitor, partial curve, poor fit]
CN(C)CCCN(C(=O)CCSc1ccccc1)c1nc2cc3c(cc2s1)OCO3 10 µM [inhibitor, partial curve, poor fit]
CCOc1ccccc1N1CCN(C(=O)CCCc2nc3ccccc3s2)CC1 28.2 µM [inhibitor, single point]
CCC1=NN(C(=O)c2ccccc2O)C(O)(c2ccccc2)C1 (stereo unspecified) 1.78 µM [inhibitor, full curve, poor fit]
CCCCOc1c(Cl)cc(C(=O)N(Cc2ccc(C)o2)C2CCS(=O)(=O)C2)cc1Cl (stereo unspecified) 28.2 µM [inhibitor, single point]
N=c1n(CCO)c2ccccc2n1Cc1ccccc1Cl 11.2 µM [inhibitor, single point]
CC(=O)c1cc(C#N)c(SCC(=O)OC(C)(C)C)nc1C 10 µM [inhibitor, partial curve, poor fit]
Cc1ccc(C(=O)NCCCc2ccccc2)s1 10 µM [inhibitor, single point]
CCOc1ccc(CN2CCN(Cc3[nH]c4ccccc4c3C)CC2CCO)cc1 (stereo unspecified) 11.2 µM [inhibitor, partial curve, poor fit]
O=C(c1csc2c1CCCC2)N1CCN(c2ccc(F)cc2)CC1 1.26 µM [inhibitor, full curve, poor fit]
O=C1C(Cl)=C(N2CCCCCC2)C(=O)N1c1ccc(Cl)cc1 28.2 µM [inhibitor, single point]

Activity change, negative = inhibition, inactive:
COc1cccc(N/C(=N/C(=S)Nc2ccc(C)cc2C)Nc2nc(C)cc(C)n2)c1 -22.7%
c1ccc(-c2nc(NCC3CCCO3)c3ccccc3n2)nc1 (stereo unspecified) 0%
Fc1cccc(Cc2noc(CN3CCN(c4cnccn4)CC3)n2)c1 -5.63%
O=C1C2CCCCN2C(=O)N1CCCN1CCN(c2ccc(F)cc2)CC1 (stereo unspecified) -2.76%
COc1cccc(-c2onc3ccc(C(=O)/C=C/N(C)C)cc23)c1 4.58%
CC(C)CN1C(=O)C(=O)N(CC(=O)NC(C)CCc2ccccc2)C1=O (stereo unspecified) -5.68%
O=C1NC[C@H](CCCCN2C[C@H](Cc3ccc(O)cc3)N(CCC3CCCCC3)C(=O)C2=O)N(CCc2ccc(O)cc2)C1=O 6.94%
C=C(C)C(=O)Nc1cccc(C2=NOC3(C2)C[C@H](C(N)=O)N(C(=O)c2ccccc2)C3)c1 (stereo partly specified) 17.1%
COc1cc(NC(=O)c2ccc(Cl)cc2)c(OC)cc1NC(=O)CN1CCOCC1 -2.02%
